Patent US11498899B2, “Nitrone herbicides” (FMC Corporation, priority 2016, dated 2022)

System: sedge, umbrella (small-flower umbrella sedge, Cyperus difformis)
Assay: Test B flooded paddy test, visual rating 0-100
Conditions: Flood, 250 g ai/ha, applied to paddy water, rated after 13 to 15 days

Compound | Sedge, Umbrella plant response rating (0 to 100 scale)
CC1=[N+]([O-])C(C)(C(=O)Nc2cccc(F)c2F)C(c2ccc(C(F)(F)F)cc2)C1 (racemic) [Compound 1] | 0
CC1=[N+]([O-])C(C(=O)Nc2cccc(F)c2F)C(c2cccc(Cl)c2)C1 (racemic) [Compound 3] | 0
CC1=[N+]([O-])C(C(=O)Nc2cccc(F)c2F)C(c2ccc3c(c2)OCO3)C1 (racemic) [Compound 4] | 0
CC1=[N+]([O-])C(C(=O)Nc2cccc(F)c2F)C(c2cccc(F)c2)C1 (racemic) [Compound 8] | 0
CC1=[N+]([O-])C(C(=O)Nc2cccc(F)c2F)C(c2ccc(F)cc2)C1 (racemic) [Compound 9] | 0
CC1=[N+]([O-])C(C(=O)Nc2cccc(F)c2F)C(c2ccc(F)c(F)c2)C1 (racemic) [Compound 10] | 0
CC1=[N+]([O-])C(C(=O)Nc2cccc(F)c2F)C(c2ccccc2C)C1 (racemic) [Compound 11] | 0
CC1=[N+]([O-])C(C(=O)Nc2cccc(F)c2F)C(c2cccc(C(C)C)c2)C1 (racemic) [Compound 12] | 0
CC1=[N+]([O-])C(C(=O)Nc2cccc(F)c2F)C(c2c(F)cccc2Cl)C1 (racemic) [Compound 14] | 0
CC1=[N+]([O-])C(C(=O)Nc2cccc(F)c2F)C(c2cccc(C)c2)C1 (racemic) [Compound 15] | 0
CC1=[N+]([O-])C(C(=O)Nc2cccc(F)c2F)C(c2ccccc2)C1 (racemic) [Compound 16] | 0
CC1=[N+]([O-])C(C(=O)Nc2ccccc2)C(c2ccc(F)c(F)c2)C1 (racemic) [Compound 17] | 0
CC1=[N+]([O-])C(C(=O)Nc2cccc(F)c2F)C(c2cccc(Br)c2)C1 (racemic) [Compound 19] | 0
CC1=[N+]([O-])C(C(=O)Nc2cccc(F)c2F)C(c2ccc(Br)cc2)C1 (racemic) [Compound 20] | 0
CC1=[N+]([O-])C(C(=O)Nc2cccc(F)c2F)C(c2ccccc2F)C1 (racemic) [Compound 21] | 0
CC1=[N+]([O-])C(C(=O)Nc2cccc(F)c2F)C(c2ccc(C#N)cc2)C1 (racemic) [Compound 22] | 0
CC1=[N+]([O-])C(C(=O)Nc2cccc(F)c2F)C(c2cccc(C#N)c2)C1 (racemic) [Compound 23] | 0
CC1=[N+]([O-])C(C(=O)Nc2cccc(F)c2F)C(c2ccc(C)c(C)c2)C1 (racemic) [Compound 24] | 0
CC1=[N+]([O-])C(C(=O)Nc2cccc(C#N)c2F)C(c2ccc(C(F)(F)F)cc2)C1 (racemic) [Compound 28] | 0
CSc1ccccc1NC(=O)C1C(c2ccc(C(F)(F)F)cc2)CC(C)=[N+]1[O-] (racemic) [Compound 29] | 0
CC1=[N+]([O-])C(C(=O)Nc2cccc(F)c2Cl)C(c2ccc(C(F)(F)F)cc2)C1 (racemic) [Compound 31] | 0

Compound | Sedge, Umbrella plant response rating (0 to 100 scale)
CC1=[N+]([O-])C(C(=O)Nc2ccccc2C#N)C(c2ccc(C(F)(F)F)cc2)C1 (racemic) [Compound 32] | 0
CC1=[N+]([O-])C(C(=O)Nc2ccccc2C(F)(F)F)C(c2ccc(C(F)(F)F)cc2)C1 (racemic) [Compound 33] | 0
CC1=[N+]([O-])C(C(=O)Nc2cccc(F)c2C#N)C(c2ccc(C(F)(F)F)cc2)C1 (racemic) [Compound 34] | 0
O=C(Nc1cccc(F)c1F)C1C(c2ccccc2)CC(C(F)(F)F)=[N+]1[O-] (racemic) [Compound 35] | 0
CC1=[N+]([O-])C(C(=O)Nc2ccncc2C(F)(F)F)C(c2ccc(C(F)(F)F)cc2)C1 (racemic) [Compound 36] | 0
CC1=[N+]([O-])C(C(=O)Nc2ccc(F)c(F)c2F)C(c2ccc(C(F)(F)F)cc2)C1 (racemic) [Compound 38] | 0
CC1=[N+]([O-])C(C(=O)Nc2cccnc2F)C(c2ccc(C(F)(F)F)cc2)C1 (racemic) [Compound 41] | 0
CC1=[N+]([O-])C(C(=O)Nc2ccccc2S(C)(=O)=O)C(c2ccc(C(F)(F)F)cc2)C1 (racemic) [Compound 43] | 0
CC1=[N+]([O-])C(C(=O)Nc2ccccc2[S+](C)[O-])C(c2ccc(C(F)(F)F)cc2)C1 (racemic) [Compound 44] | 0
CC1=[N+]([O-])C(C(=O)Nc2ccc(F)cc2F)C(c2ccc(C(F)(F)F)cc2)C1 (racemic) [Compound 46] | 0
CC1=[N+]([O-])C(C(=O)Nc2cccc(F)n2)C(c2ccc(C(F)(F)F)cc2)C1 (racemic) [Compound 47] | 0
CC1=[N+]([O-])C(C(=O)Nc2cccc(F)c2F)C(c2ccc(F)c(Oc3ccc(F)cn3)c2)C1 (racemic) [Compound 48] | 0
CC1=[N+]([O-])C(C(=O)Nc2cccc(F)c2F)C(c2cccc(C)n2)C1 (racemic) [Compound 49] | 0
CC1=[N+]([O-])C(C(=O)Nc2cccc(F)c2F)C(c2cc(F)cc(Oc3ccc(Cl)nc3)c2)C1 (racemic) [Compound 50] | 0
CC1=[N+]([O-])C(C(=O)Nc2cccc(F)c2F)C(c2ccc(F)c(Oc3ccc(Cl)nc3)c2)C1 (racemic) [Compound 51] | 0
CC1=[N+]([O-])C(C(=O)Nc2cccc(F)c2F)C(c2ccc(F)c(Oc3ncc(F)cn3)c2)C1 (racemic) [Compound 52] | 0
CC1=[N+]([O-])C(C(=O)Nc2cccc(F)c2F)C(c2cccc(Oc3ccc(Cl)cn3)c2)C1 (racemic) [Compound 56] | 0
COc1cc(C2CC(C)=[N+]([O-])C2C(=O)Nc2cccc(F)c2F)cc(C)n1 (racemic) [Compound 57] | 0
CC1=[N+]([O-])C(C(=O)Nc2cccc(F)c2F)C(c2cccc(Oc3ccc(F)cc3)c2)C1 (racemic) [Compound 58] | 0
CC1=[N+]([O-])C(C(=O)Nc2cccc(F)c2F)C(c2ccc(C(F)(F)F)nc2)C1 (racemic) [Compound 60] | 0
CC1=[N+]([O-])C(C(=O)Nc2cccc(F)c2F)C(c2ccc(C)c(C(F)(F)F)c2)C1 (racemic) [Compound 62] | 0

Compound | Sedge, Umbrella plant response rating (0 to 100 scale)
CC1=[N+]([O-])C(C(=O)Nc2cccc(F)c2F)C(c2ccc(F)c(Cl)c2)C1 (racemic) [Compound 63] | 0
CC1=[N+]([O-])C(C(=O)Nc2cccc(F)c2F)C(c2ccc(F)c(C(F)(F)F)c2)C1 (racemic) [Compound 64] | 0
CC1=[N+]([O-])C(C(=O)Nc2cccc(F)c2F)C(c2cccc(Br)n2)C1 (racemic) [Compound 65] | 15
CC1=[N+]([O-])C(C(=O)Nc2cccc(F)c2F)C(c2ccc(Br)cn2)C1 (racemic) [Compound 66] | 0
COc1cccc(C2CC(C)=[N+]([O-])C2C(=O)Nc2cccc(F)c2F)n1 (racemic) [Compound 67] | 0
CC1=[N+]([O-])C(C(=O)Nc2cccc(F)c2F)C(c2ccc(F)cc2Oc2ncc(F)cn2)C1 (racemic) [Compound 68] | 0
CC1=[N+]([O-])C(C(=O)Nc2cccc(F)c2F)C(c2ccc(C)c(Br)c2)C1 (racemic) [Compound 71] | 0
CC1=[N+]([O-])C(C(=O)Nc2cccc(F)c2F)C(c2ccc(C)c(Cl)c2)C1 (racemic) [Compound 72] | 0
CC1=[N+]([O-])C(C(=O)Nc2cccc(F)c2F)C(c2ccc(C(F)(F)F)c(Br)c2)C1 (racemic) [Compound 73] | 0
COc1ccc(C2CC(C)=[N+]([O-])C2C(=O)Nc2cccc(F)c2F)cc1C(F)(F)F (racemic) [Compound 74] | 0
CC1=[N+]([O-])C(C(=O)Nc2cccc(F)c2F)C(c2cccc(C)c2C)C1 (racemic) [Compound 77] | 0
CC1=[N+]([O-])C(C(=O)Nc2cccc(F)c2F)C(c2cccc(F)c2C)C1 (racemic) [Compound 78] | 15
CC1=[N+]([O-])C(C(=O)Nc2cccc(F)c2F)C(c2cc(C)ccc2C)C1 (racemic) [Compound 79] | 0
CC1=[N+]([O-])C(C(=O)Nc2cccc(F)c2F)C(c2cc(F)ccc2C)C1 (racemic) [Compound 81] | 0
CC1=[N+]([O-])C(C(=O)Nc2cccc(F)c2F)C(c2cc(C)nc(OC(F)F)c2)C1 (racemic) [Compound 83] | 15
CC1=[N+]([O-])C(C(=O)Nc2cccc(F)c2F)C(c2cc(F)c(F)c(Oc3ncc(F)cn3)c2)C1 (racemic) [Compound 85] | 0
CC1=[N+]([O-])C(C(=O)Nc2cccc(F)c2F)C(c2cc(C)n(Cc3ccc(Cl)cc3)c(=O)c2)C1 (racemic) [Compound 86] | 0
CC1=[N+]([O-])C(C(=O)Nc2cccc(F)c2F)C(c2ccc(C(F)(F)F)c(C)c2)C1 (racemic) [Compound 87] | 60
CC1=[N+]([O-])C(C(=O)Nc2cccc(F)c2F)C(c2ccc(C(F)(F)F)cn2)C1 (racemic) [Compound 88] | 0
